Measurements from the supplement of paper PMC3334620.
In all, about 33,000 sequences were measured (“E-score (-0.5 to 0.5)”: median about -0.054, highest 2% from about 0.35 on). This is one part of the list.

target: T1, Stb5 (UniProt P38699); assay: PBM E-score (8-mer binding enrichment) (E-score (-0.5 to 0.5)); higher = stronger / more preferred TF binding; most listed sequences are background and not binding sites; conditions: protein concentration: 200 nM; construct: GST-full length
T1 sequence: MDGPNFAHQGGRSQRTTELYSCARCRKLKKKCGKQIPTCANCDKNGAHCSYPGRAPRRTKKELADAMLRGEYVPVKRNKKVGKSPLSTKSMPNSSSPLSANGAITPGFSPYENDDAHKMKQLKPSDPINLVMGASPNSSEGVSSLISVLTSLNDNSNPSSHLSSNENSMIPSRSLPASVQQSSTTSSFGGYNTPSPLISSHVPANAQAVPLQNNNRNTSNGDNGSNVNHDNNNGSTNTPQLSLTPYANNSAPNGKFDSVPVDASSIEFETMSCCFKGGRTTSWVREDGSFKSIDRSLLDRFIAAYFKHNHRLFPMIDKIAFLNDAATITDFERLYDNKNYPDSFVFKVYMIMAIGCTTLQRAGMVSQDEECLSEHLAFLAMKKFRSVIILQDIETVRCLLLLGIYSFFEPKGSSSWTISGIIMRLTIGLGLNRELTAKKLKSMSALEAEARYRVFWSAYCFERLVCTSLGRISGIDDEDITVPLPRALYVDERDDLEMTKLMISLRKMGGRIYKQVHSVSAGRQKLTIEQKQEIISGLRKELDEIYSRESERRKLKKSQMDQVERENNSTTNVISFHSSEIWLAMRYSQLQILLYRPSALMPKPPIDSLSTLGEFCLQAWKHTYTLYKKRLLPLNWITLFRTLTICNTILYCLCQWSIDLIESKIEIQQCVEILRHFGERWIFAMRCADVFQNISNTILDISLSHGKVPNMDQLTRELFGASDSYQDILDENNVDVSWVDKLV
Summary of the method: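 Bound GST-tagged yeast transcription factors, applied at about 100-200 nM to double-stranded universal all-10-mer Agilent arrays, were detected with fluorescent anti-GST. Scans were normalised with masliner. A modified Wilcoxon-Mann-Whitney statistic, the E-score, was assigned to each ungapped eight-base word pooled with its reverse complement by the Universal PBM Analysis Suite.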

| Sequence | PBM E-score |
| --- | --- |
| ACCCGGCG | 0.232 |
| TATATACA | -0.0903 |
| AGCAGACT | -0.263 |
| AAGTACCT | -0.178 |
| CGAAATTC | 0.0811 |
| ACGATCAC | -0.199 |
| ATGCTGGC | -0.18 |
| AACTGCTT | -0.149 |
| CGGAAATA | 0.399 |
| ATTGGTTA | -0.179 |
| AATAGCCC | 0.119 |
| ACGCCGCG | 0.361 |
| TACGCGGA | 0.121 |
| AGAATGTA | -0.0152 |
| CCCGAACA | 0.107 |
| GGTTGCAA | -0.0888 |
| CTACCGAC | 0.264 |
| AAAACGGT | 0.144 |
| GCCCAGCC | -0.245 |
| ATTTTGAC | -0.072 |
| AACCACCC | 0.0323 |
| ACTGATCC | -0.228 |
| GACTATAA | 0.195 |
| AATCACAG | -0.0987 |
| CAATTACG | -0.1 |

| Sequence | PBM E-score |
| --- | --- |
| CTGAAACC | 0.0837 |
| GCAAAACC | 0.116 |
| AAACAAAT | -0.122 |
| CCCTAGAA | -0.0853 |
| CAGAACGG | 0.259 |
| ACACGTAT | -0.0124 |
| CGTCCCGA | 0.245 |
| CGACTAAG | 0.202 |
| GGCACACC | -0.0809 |
| ATTTTCCC | 0.178 |
| GTATTTAA | -0.0551 |
| TCTACGAA | -0.25 |
| TCTGCAGA | 0.00207 |
| AGATCTAG | -0.188 |
| AGCATACT | -0.195 |
| ATTTGATA | -0.0969 |
| CTCGTACC | -0.0494 |
| CCATACTA | -0.188 |
| ACGTAAGG | -0.247 |
| GCCTCGAC | -0.122 |
| AGTGTCGC | 0.0584 |
| AGTGGGAG | -0.247 |
| ATACACCA | -0.0712 |
| ACAACCTG | -0.266 |
| ATAGATAT | -0.083 |

| Sequence | PBM E-score |
| --- | --- |
| AGGTAGCG | 0.0541 |
| TACACATA | -0.0898 |
| AGGGCTGA | -0.143 |
| ACTGAACA | -0.218 |
| GAGGATAA | -0.0808 |
| AGCAAGAG | -0.28 |
| ACGCCGGC | 0.389 |
| GCATATGC | -0.214 |
| AAGTAAAT | 0.0828 |
| CTGCTTTC | -0.11 |
| ATGGACAC | -0.112 |
| AGGGCCGA | 0.354 |
| CGGTAGCA | 0.24 |
| ACGCGGCA | 0.189 |
| CAGGATGC | -0.0527 |
| GAAAAGAA | -0.181 |
| AGCTGTGC | -0.0928 |
| AAGCATGC | -0.367 |
| GGTGGGCA | -0.217 |
| CCACTACG | -0.0468 |
| AAACGTCA | -0.201 |
| ATTCGGTC | 0.155 |
| GAGACAGA | -0.108 |
| CAACGCGA | -0.172 |
| ACGGACGC | 0.133 |

| Sequence | PBM E-score |
| --- | --- |
| GTTGGCCA | -0.227 |
| GAACGAGA | -0.0537 |
| ACCGCGCA | 0.254 |
| TATGTAAA | 0.0251 |
| ATCATCAG | -0.123 |
| CCGGCGCG | 0.305 |
| AACAAGCA | 0.0225 |
| CGGTTGGA | -0.0239 |
| CCGCTTCG | 0.307 |
| AGTATCAA | -0.153 |
| ATTGCAGG | -0.168 |
| AGATGGTG | -0.0983 |
| ATTGAAAT | -0.0501 |
| TTTACAAA | -0.221 |
| ACCTCATG | -0.0767 |
| GCCGCAGC | 0.117 |
| GGAGAATA | 0.142 |
| GCGGGTGA | 0.109 |
| GTTTTAAA | 0.0954 |
| CAGAAGCG | -0.0546 |
| CGTGCGGC | 0.267 |
| ACCGTAGC | 0.0274 |
| GTAATTAC | 0.184 |
| GTGTCCAA | -0.144 |
| TAGTTGCA | 0.0111 |

| Sequence | PBM E-score |
| --- | --- |
| GATATTTA | 0.213 |
| CGTCAACC | 0.00466 |
| CAGGGAGG | -0.271 |
| CCACGACA | 0.0875 |
| CTGTTATC | -0.103 |
| ACGCTGGA | -0.0583 |
| ACCTTTTC | -0.236 |
| TCTAAAAA | -0.0239 |
| CTGCAGTA | -0.119 |
| GTTTGACA | -0.139 |
| TGAAAGAA | -0.0981 |
| CCCGCCGC | 0.347 |
| CGGGTAGA | -0.0768 |
| AAGGGGAG | -0.137 |
| CATCACCA | -0.197 |
| CCTCCACG | 0.00689 |
| ATTTGCGA | -0.238 |
| ACATAACG | 0.123 |
| CCCCGTGC | 0.375 |
| CCTTTATA | 0.197 |
| CGCGTACC | -0.0838 |
| TACGACAA | -0.132 |
| ATCGCGGA | 0.0956 |
| AGCCTTTA | -0.104 |
| GTGCGAAC | 0.0102 |

| Sequence | PBM E-score |
| --- | --- |
| CTACAGTC | -0.0953 |
| ACCACTCC | 0.0502 |
| ACAGGTAT | -0.159 |
| AGAAGATG | -0.239 |
| CCATGTTC | -0.154 |
| AGATCCGG | 0.322 |
| AAAAGAAT | 0.0457 |
| GACGCGAA | -0.182 |
| ACGCACGT | -0.00612 |
| ACGATAGA | -0.27 |
| CCACCAAC | 0.0503 |
| TAAAGACA | -0.0735 |
| GAATGCTC | -0.156 |
| CGCCTCTC | -0.217 |
| CAGGCTGA | -0.209 |
| CTCATAAC | -0.0443 |
| ATGACAAT | -0.289 |
| ACCGGCGT | 0.365 |
| ATGAATGC | 0.0342 |
| TCGCTACA | -0.28 |
| TCTCGTAA | -0.0135 |
| GTATTCAC | 0.135 |
| ATGCTACG | 0.0298 |
| AAACGTAC | -0.209 |
| CCCAGTCG | -0.0165 |

| Sequence | PBM E-score |
| --- | --- |
| ATACGTAG | -0.0629 |
| GTTCTGCA | -0.0855 |
| AAATTTAA | -0.0122 |
| GAGCATAA | -0.00752 |
| AATTTCTG | -0.236 |
| ACTCAGCC | 0.0126 |
| CCGTGCTA | 0.119 |
| ACGAGCTG | -0.291 |
| CCATAGGC | 0.129 |
| CAAGCGCA | -0.12 |
| CTTCTGAC | -0.0933 |
| ATCACAGG | -0.257 |
| ACATGAAC | -0.0778 |
| TGCTCCAA | -0.376 |
| ATCCTGCG | 0.0166 |
| CATTATTC | -0.0342 |
| TCCTTCCA | -0.259 |
| GGGAAGAA | -0.125 |
| ATAGGTCG | 0.157 |
| ACACAAGG | -0.19 |
| CATCGTCG | 0.059 |
| ACTGCACA | -0.194 |
